# Reference: PubChem BioAssay AID588855 (National Center for Advancing Translational Sciences (NCATS), 2011)
# About 5,000 (1.2%) of roughly 410,000 compounds were called active. This list was built around the results that the source calls inconclusive (neither active nor inactive); the mix of calls is not that of the screen. The call rests on the fitted dose curve; in most records, active means well fitted inhibition curve with a large enough effect; inconclusive means small, poorly fitted or top-dose-only effect; inactive means no such curve, though single readings can be large or run the other way. Where the call is inconclusive, the potency comes from a doubtful curve fit.
# Assay: qHTS for Inhibitors of TGF-b; further: nearly all actives have a fitted effect of over 65% in size
# Conditions: HepG2 CAGA-GFP TGF-b/SMAD3 reporter, GFP fluorescence, 18 h, TGF-beta stimulated, 500 pg/mL final; series mostly up to 46.1 µM; activity, negative = inhibition: at the top concentration
# In short: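 Per well, imaged GFP fluorescence of HEPG2 CAGA-GFP cells gives the signal; cells get compound, then TGF-beta (500 pg/mL final), 18 h at 37 degrees C; %Activity versus -TGF-beta and +DMSO controls.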
# On the % scale 0 is the no-effect control and ±100 the full control effect; potency means the concentration at half of the fitted maximal effect; tags describe the fitted curve by direction and shape.
SMILES,Potency,"activity, negative = inhibition"
CC/C(=C/c1ccccc1)c1cccc2[nH]c3c(OC)cccc3c12,"inconclusive: 35.5 µM [inhibitor, single point]",
CCCOc1ccc(NC(=O)CNC(=O)c2cc(OC)cc(OC)c2)cc1OCCC,"inconclusive: 12.6 µM [inhibitor, single point]",
Cc1ccc(S(=O)(=O)NNC(=O)Nc2cccc3ccccc23)cc1,"inconclusive: 15.8 µM [inhibitor, single point]",
Clc1ccccc1-c1nnc(SCc2nc(-c3ccccc3)no2)n1-c1ccccc1,"inconclusive: 14.1 µM [inhibitor, single point]",
Cc1ccc(S(=O)(=O)c2nc(C)c3c(n2)CCC3)cc1,"inconclusive: 0.112 µM [inhibitor, full curve, poor fit]",
CC1C(=O)N(Cc2cn(CC3CCCCC3)nn2)CCS(=O)(=O)N1Cc1ccc(-c2ccc(Cl)c(Cl)c2)cc1 (centres undefined),"inconclusive: 35.5 µM [inhibitor, single point]",
CCCCOc1ccc(C(=O)NCC(=O)NCC2CCCO2)cc1 (centres undefined),,inactive: 0.954%
C=CCNc1cc(=O)n(Cc2ccccc2)c(=O)[nH]1,,inactive: 29.8%
C=CC[C@@H](Cc1ccc(F)cc1)C(=O)OC[C@H]1CCCN1C(=O)[C@@H](CC=C)CC(=O)N(CCO)Cc1ccccc1,"inconclusive: 11.2 µM [inhibitor, partial curve, poor fit]",
Cc1ccc(N2CC(C(=O)OCC(=O)C(C)(C)C)CC2=O)cc1C (centres undefined),"inconclusive: 6.31 µM [inhibitor, full curve, poor fit]",
Cc1ccc(NC(=O)COC(=O)c2ccco2)cc1S(=O)(=O)N1CCCCC1,,inactive: 2.44%
Clc1ccsc1-c1ccc2ccccc2n1,,inactive: 2.51%
COc1ccc(N2Cc3cccc(C(=O)Nc4cccc(F)c4)c3C2=O)cc1,,inactive: 26.5%
Cc1[nH]c2ccccc2c1C(c1ccncc1)N1CCN(c2ccccc2F)CC1 (centres undefined),"inconclusive: 11.2 µM [inhibitor, single point]",
CC(=O)c1ccc(-c2ccc(C(=O)N3CCN(c4ccc(F)cc4)CC3)o2)cc1,"inconclusive: 35.5 µM [inhibitor, single point]",
CN1CCN(C(c2cccs2)c2nnnn2Cc2ccc(F)cc2)CC1 (centres undefined),,inactive: 0.178%
COc1ccc(CN2C(=O)Cc3c2nc(N)c2c(N)nc(N4CCOCC4)c(C#N)c32)cc1,,inactive: 7.54%
Cn1c(C(=O)N2CCC(C(=O)N3CCN(c4ccccc4)CC3)CC2)cc2sccc21,"inconclusive: 35.5 µM [inhibitor, single point]",
Cc1c(C)n(Cc2ccccc2)c2ncnc(NN)c12,"inconclusive: 35.5 µM [inhibitor, single point]",
O=C(O)/C=C/C(=O)NCCC(c1ccccc1)c1ccccc1,"inconclusive: 15.8 µM [inhibitor, single point]",
C[C@H](CO)N1C[C@H](C)[C@@H](CN(C)Cc2ccc(Cl)c(Cl)c2)Oc2c(NC(=O)Cc3ccccc3)cccc2C1=O,"inconclusive: 22.4 µM [inhibitor, single point]",
COc1ccc(C2CC(=O)Oc3c(C(CCN4CCN(c5ccccc5)CC4)c4ccc(N(C)C)cc4)c(OC)cc(OC)c32)cc1 (centres undefined),"inconclusive: 22.4 µM [inhibitor, single point]",

SMILES,Potency,"activity, negative = inhibition"
Cc1ccc(CNC(=O)c2c[nH]n3c(=O)c(Cc4ccc(F)cc4Cl)c(C)nc23)cc1,"inconclusive: 35.5 µM [inhibitor, single point]",
O=C(N/N=C/c1ccco1)c1cc(-c2ccc3ccccc3c2)n[nH]1,"inconclusive: 28.2 µM [inhibitor, single point]",
O=S(=O)(NCC(c1ccco1)N1CCc2ccccc2C1)c1ccc(Br)cc1 (centres undefined),"inconclusive: 22.4 µM [inhibitor, single point]",
COc1ccc(OC)c(CNC(=O)C2CCN(S(=O)(=O)c3ccc4[nH]c(=O)oc4c3)CC2)c1,,inactive: -23%
O=C(Nc1nc(-c2ccco2)c(-c2ccco2)s1)C1CC(=O)N(c2ccc3c(c2)OCCO3)C1 (centres undefined),,inactive: -1.39%
Cc1ccc(NCc2nnc(SCC(=O)Nc3ncc(C)s3)n2CC2CCCO2)c(C)c1 (centres undefined),,inactive: 23.9%
CC(C)Oc1ccc(CNC(=O)c2cccc(NC(=O)c3nsc4ccccc34)c2)cc1,"inconclusive: 3.16 µM [inhibitor, full curve, poor fit]",
O=C(COc1ccc(C(=O)NCc2cccnc2)cc1)Nc1cccc(C(F)(F)F)c1,"inconclusive: 11.2 µM [inhibitor, partial curve, poor fit]",
C#CCOCCOCCOCCNc1nc(N2CCN(C(=O)[C@H]([C@@H](C)CC)n3cc([C@@H](N)CC(C)C)nn3)CC2)nc(N2CCN(C(=O)[C@H](Cc3ccc(O)cc3)n3cc([C@@H](N)CC(C)C)nn3)CC2)n1,"inconclusive: 0.112 µM [inhibitor, full curve, poor fit]",
Cc1nnc(SCC(=O)Nc2sc3c(c2C(=O)c2ccccc2)CCCC3)s1,"inconclusive: 12.6 µM [inhibitor, partial curve, poor fit]",
CCOC(=O)C1=C(COc2ccccc2)NC(=O)NC1c1ccc(Cl)cc1 (centres undefined),"inconclusive: 17.8 µM [inhibitor, single point]",
CC1(C(=O)Nc2ccc3ccccc3c2)CCC(=O)N1CCc1c[nH]c2ccccc12 (centres undefined),"inconclusive: 35.5 µM [inhibitor, single point]",
Clc1cccc(Cc2c(-c3cccc(Br)c3)nc3ccc(Cl)cn23)c1,"inconclusive: 15.8 µM [inhibitor, single point]",
O=C(c1cc(-c2ccc(F)cc2)nc2ccccc12)N1CCN(C2CCS(=O)(=O)C2)CC1 (centres undefined),,inactive: -2.61%
CCc1cccc2c(C(=O)CN3C(=O)NC(C)(c4cccc5ccccc45)C3=O)c[nH]c12 (centres undefined),"inconclusive: 7.94 µM [inhibitor, partial curve, poor fit]",
CC(C)C(=O)N1CCC1(C)C(=O)Nc1ccc2[nH]ccc2c1 (centres undefined),,inactive: 23.7%
Cc1ccc(NC(=O)/C(=C/c2ccco2)c2ccccc2)c(C)c1,"inconclusive: 14.1 µM [inhibitor, single point]",
CCOc1ccc(C(=O)Nc2ccc(C(=O)OCc3cc(=O)n4c(C)csc4n3)cc2)cc1,active: 22.4 µM,
CC(=O)N1CCc2cc(C(=O)CN3CCN(c4ccccn4)CC3)ccc21,"inconclusive: 28.2 µM [inhibitor, single point]",
Cc1ccc(C2N3CC4(C)CN2CC(c2ccccc2)(C3)C4=O)cc1 (centres undefined),"inconclusive: 35.5 µM [inhibitor, single point]",
Cc1ccc2c(cnn2C(=O)CCCC(=O)NCc2ccc(F)cc2)c1,"inconclusive: 1.12 µM [inhibitor, partial curve, poor fit]",
CC(=O)c1cccc(-c2ccnc3c2CC(C(=O)NCC2CCOCC2)O3)c1 (centres undefined),,inactive: -8.51%

SMILES,Potency,"activity, negative = inhibition"
Cc1cc(Cl)ccc1OCC(=O)OCC(=O)Nc1ccc(Cl)cn1,"inconclusive: 5.62 µM [inhibitor, single point]",
CCc1ccc2oc(-c3cccc(NC(=O)c4cccnc4)c3)nc2c1,"inconclusive: 35.5 µM [inhibitor, single point]",
CCOc1cc(C(=O)N(CC)CC(=O)Nc2c(F)cccc2F)ccc1OCC(=O)N1CCOCC1,"inconclusive: 0.1 µM [inhibitor, full curve, poor fit]",
Cc1nn(Cc2ccc(Cl)cc2)c(C)c1NC(=O)CSc1nc2c(c(C(F)(F)F)n1)CCc1ccccc1-2,,inactive: -23.3%
CCC(Sc1nc2ccncc2[nH]1)C(=O)Nc1cc(C)ccc1C (centres undefined),"inconclusive: 11.2 µM [inhibitor, partial curve]",
O=C(c1ccoc1)N1CCN(c2cc(-c3ccccc3)nc3cc(-c4ccc(Br)cc4)nn23)CC1,,inactive: -1.88%
Cc1cccc(-c2nsc(SCC(=O)Nc3ccc4c(c3)OCO4)n2)c1,,inactive: -2.64%
Cn1c(=NC(=O)c2ccc(S(=O)(=O)N3CCCc4ccccc43)cc2)sc2cc(S(C)(=O)=O)ccc21,,inactive: -3.53%
OC(c1ccccc1)c1nc(/C=C/c2ccccc2)cs1 (centres undefined),"inconclusive: 12.6 µM [inhibitor, single point]",
Oc1c(C(c2ccc(Cl)cc2Cl)N2CCN(Cc3ccccc3)CC2)sc2nc(-c3ccco3)nn12 (centres undefined),"inconclusive: 20 µM [inhibitor, single point]",
CCCNC(=O)C1(C)CCCN(Cc2ccc(C#N)cc2)C1 (centres undefined),,inactive: 2.41%
O=C(CC(O)(C(F)(F)F)C(F)(F)F)Nc1ccc(Cl)c(Cl)c1,"inconclusive: 3.16 µM [inhibitor, partial curve, poor fit]",
COc1cccc(C(c2nnnn2C2CCCC2)N2CCN(C/C=C/c3ccccc3)CC2)c1OC (centres undefined),"inconclusive: 11.2 µM [inhibitor, partial curve, poor fit]",
CC(C)CN(C(=O)C1CCCCC1)C1CCS(=O)(=O)C1 (centres undefined),"inconclusive: 3.98 µM [inhibitor, single point]",
Cc1ccccc1OCCSc1nc2ccc(NC(=O)c3ccco3)cc2s1,"inconclusive: 35.5 µM [inhibitor, single point]",
Oc1ccccc1Cn1c(-c2ccccc2O)nc2ccccc21,"inconclusive: 22.4 µM [inhibitor, single point]",
COc1ccc(/C=N/NC(=O)c2cccc(NC(=O)c3ccccc3Cl)c2)cc1OC,,inactive: -0.263%
CCC(=O)N1CCc2cc(S(=O)(=O)NCCC(=O)Nc3ccc(C)cc3C)ccc21,"inconclusive: 25.1 µM [inhibitor, single point]",
COc1ccc(N(CC(=O)NCCSCc2ccc(C)cc2)S(=O)(=O)c2ccccc2)cc1,,inactive: -23%
Cc1ccc(NC(=O)CN2C(=O)c3ccccc3Sc3ccc(C(=O)N4CCOCC4)cc32)cc1C,"inconclusive: 11.2 µM [inhibitor, partial curve, poor fit]",
